Measurements: the supplement of paper PMC8728848
The other results are listed elsewhere or left out.

How the values were obtained:
Assay in all cases: glycan array binding signal (z-score within array); higher = stronger binding
Settings in all cases: glycan notation: IUPAC condensed, linker removed
[1] = biological target: Neu5Ac(a2-6)Gal(b1-4)GlcNAc(b1-2)Man(a1-3)[Neu5Ac(a2-3)Gal(b1-4)GlcNAc(b1-2)Man(a1-6)]Man(b1-4)GlcNAc(b1-4)GlcNAc
Method in brief: (§1)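 Negative Z-scores can be read as non-binding. The Z-score is calculated within each array and then averaged across arrays of one protein sequence at different concentrations or buffers and across linkers. Arrays, 3228 in all, were curated from the Consortium for Functional Glycomics database and kept only where the protein sequence was available.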

[2] = biological target: Neu5Ac(a2-6)Gal(b1-4)GlcNAc(b1-2)Man(a1-3)[Neu5Ac(a2-6)Gal(b1-4)GlcNAc(b1-2)Man(a1-6)]Man(b1-4)GlcNAc(b1-4)GlcNAc
Method in brief: as §1

[3] = biological target: Neu5Ac(a2-6)Gal(b1-4)GlcNAc(b1-2)Man(a1-3)[Neu5Ac(a2-6)Gal(b1-4)GlcNAc(b1-2)Man(a1-6)]Man(b1-4)GlcNAc(b1-4)[Fuc(a1-6)]GlcNAc
Method in brief: as §1

[4] = biological target: Neu5Ac(a2-6)Gal(b1-4)GlcNAc(b1-2)Man(a1-6)Man(b1-4)GlcNAc(b1-4)GlcNAc
Method in brief: as §1

[5] = biological target: Neu5Ac(a2-6)Gal(b1-4)GlcNAc(b1-2)Man(a1-6)[Gal(b1-4)GlcNAc(b1-2)Man(a1-3)]Man(b1-4)GlcNAc(b1-4)GlcNAc
Method in brief: as §1

[6] = biological target: Neu5Ac(a2-6)Gal(b1-4)GlcNAc(b1-2)Man(a1-6)[GlcNAc(b1-2)Man(a1-3)]Man(b1-4)GlcNAc(b1-4)GlcNAc
Method in brief: as §1

[7] = biological target: Neu5Ac(a2-6)Gal(b1-4)GlcNAc(b1-2)Man(a1-6)[Man(a1-3)]Man(b1-4)GlcNAc(b1-4)GlcNAc
Method in brief: as §1

[8] = biological target: Neu5Ac(a2-6)Gal(b1-4)GlcNAc(b1-2)[Neu5Ac(a2-6)Gal(b1-4)GlcNAc(b1-4)]Man(a1-3)[GlcNAc(b1-4)][Neu5Ac(a2-6)Gal(b1-4)GlcNAc(b1-2)[Neu5Ac(a2-6)Gal(b1-4)GlcNAc(b1-6)]Man(a1-6)]Man(b1-4)GlcNAc(b1-4)GlcNAc
Method in brief: as §1

[9] = biological target: Neu5Ac(a2-6)Gal(b1-4)GlcNAc(b1-2)[Neu5Ac(a2-6)Gal(b1-4)GlcNAc(b1-4)]Man(a1-3)[GlcNAc(b1-4)][Neu5Ac(a2-6)Gal(b1-4)GlcNAc(b1-4)Man(a1-6)]Man(b1-4)GlcNAc(b1-4)GlcNAc
Method in brief: as §1

[10] = biological target: Neu5Ac(a2-6)Gal(b1-4)GlcNAc(b1-2)[Neu5Ac(a2-6)Gal(b1-4)GlcNAc(b1-6)]Man(a1-6)[Neu5Ac(a2-6)Gal(b1-4)GlcNAc(b1-2)Man(a1-3)][GlcNAc(b1-4)]Man(b1-4)GlcNAc(b1-4)GlcNAc
Method in brief: as §1

[11] = biological target: Neu5Ac(a2-6)Gal(b1-4)GlcNAc(b1-3)Gal(b1-3)GlcNAc
Method in brief: as §1

[12] = biological target: Neu5Ac(a2-6)Gal(b1-4)GlcNAc(b1-3)Gal(b1-4)GlcNAc
Method in brief: as §1

[13] = biological target: Neu5Ac(a2-6)Gal(b1-4)GlcNAc(b1-3)Gal(b1-4)GlcNAc(b1-2)Man(a1-3)[Neu5Ac(a2-6)Gal(b1-4)GlcNAc(b1-3)Gal(b1-4)GlcNAc(b1-2)Man(a1-6)]GalNAc
Method in brief: as §1

[14] = biological target: Neu5Ac(a2-6)Gal(b1-4)GlcNAc(b1-3)Gal(b1-4)GlcNAc(b1-3)Gal(b1-4)GlcNAc
Method in brief: as §1

[15] = biological target: Neu5Ac(a2-6)Gal(b1-4)GlcNAc(b1-3)Gal(b1-4)GlcNAc(b1-3)Gal(b1-4)GlcNAc(b1-2)Man(a1-3)[Neu5Ac(a2-6)Gal(b1-4)GlcNAc(b1-3)Gal(b1-4)GlcNAc(b1-3)Gal(b1-4)GlcNAc(b1-2)Man(a1-6)]GalNAc
Method in brief: as §1

[16] = biological target: Neu5Ac(a2-6)Gal(b1-4)GlcNAc(b1-3)Gal(b1-4)GlcNAc(b1-3)GalNAc
Method in brief: as §1

[17] = biological target: Neu5Ac(a2-6)Gal(b1-4)GlcNAc(b1-3)Gal(b1-4)GlcNAc(b1-3)[Neu5Ac(a2-6)Gal(b1-4)GlcNAc(b1-3)Gal(b1-4)GlcNAc(b1-6)]GalNAc
Method in brief: as §1

[18] = biological target: Neu5Ac(a2-6)Gal(b1-4)GlcNAc(b1-3)Gal(b1-4)GlcNAc(b1-6)[Gal(b1-3)]GalNAc
Method in brief: as §1

[19] = biological target: Neu5Ac(a2-6)Gal(b1-4)GlcNAc(b1-3)Gal(b1-4)[Fuc(a1-3)]GlcNAc(b1-3)Gal(b1-4)[Fuc(a1-3)]GlcNAc
Method in brief: as §1

[20] = biological target: Neu5Ac(a2-6)Gal(b1-4)GlcNAc(b1-3)GalNAc
Method in brief: as §1

[21] = biological target: Neu5Ac(a2-6)Gal(b1-4)GlcNAc(b1-3)[Neu5Ac(a2-6)Gal(b1-4)GlcNAc(b1-6)]GalNAc
Method in brief: as §1

[22] = biological target: Neu5Ac(a2-6)Gal(b1-4)GlcNAc(b1-6)GalNAc
Method in brief: as §1

[23] = biological target: Neu5Ac(a2-6)Gal(b1-4)GlcNAc(b1-6)[Gal(b1-3)GlcNAc(b1-3)]Gal(b1-4)Glc
Method in brief: as §1

[24] = biological target: Neu5Ac(a2-6)Gal(b1-4)GlcNAc(b1-6)[Gal(b1-3)]GalNAc
Method in brief: as §1

[25] = biological target: Neu5Ac(a2-6)Gal(b1-4)GlcNAc6S
Method in brief: as §1

Neu5Ac(a2-6)GalNAc = biological target: Neu5Ac(a2-6)GalNAc
Method in brief: as §1

[26] = biological target: Neu5Ac(a2-6)GalNAc(b1-4)GlcNAc
Method in brief: as §1

[27] = biological target: Neu5Ac(a2-6)GalNAc(b1-4)GlcNAc6S
Method in brief: as §1

[28] = biological target: Neu5Ac(a2-6)GlcNAc(b1-4)GlcNAc
Method in brief: as §1

[29] = biological target: Neu5Ac(a2-6)GlcNAc(b1-4)GlcNAc(b1-4)GlcNAc
Method in brief: as §1

B1: DrGRIFIN (Danio rerio), Q6DGJ1 (protein)
chain: MTLRFEASCPDGLCPGWSVILKGETPPEASKFEINFLCDRDDRVAFHFNPRFTESDIICNSYMANRWGQEERCNHFPLGVEEPFQIEIYSDNDHFHVYIDKAKVMQYKHRVEDLKTITKLQVVNDVKISSLEITKKLFY
glycan array binding signal (z-score) [1]: -0.171
glycan array binding signal (z-score) [2]: -0.171
glycan array binding signal (z-score) [3]: -0.194
glycan array binding signal (z-score) [4]: -0.174
glycan array binding signal (z-score) [5]: -0.195
glycan array binding signal (z-score) [6]: 0.01
glycan array binding signal (z-score) [7]: -0.172
glycan array binding signal (z-score) [8]: -0.026
glycan array binding signal (z-score) [9]: -0.145
glycan array binding signal (z-score) [10]: -0.183
glycan array binding signal (z-score) [11]: -0.084
glycan array binding signal (z-score) [12]: -0.149
glycan array binding signal (z-score) [13]: -0.177
glycan array binding signal (z-score) [14]: -0.161
glycan array binding signal (z-score) [15]: -0.014
glycan array binding signal (z-score) [16]: -0.157
glycan array binding signal (z-score) [17]: -0.192
glycan array binding signal (z-score) [18]: -0.16
glycan array binding signal (z-score) [19]: 0.126
glycan array binding signal (z-score) [20]: -0.217
glycan array binding signal (z-score) [21]: -0.107
glycan array binding signal (z-score) [22]: -0.085
glycan array binding signal (z-score) [23]: -0.205
glycan array binding signal (z-score) [24]: -0.179
glycan array binding signal (z-score) [25]: -0.115
glycan array binding signal (z-score) (Neu5Ac(a2-6)GalNAc): -0.139
glycan array binding signal (z-score) [26]: -0.072
glycan array binding signal (z-score) [27]: -0.125
glycan array binding signal (z-score) [28]: -0.184
glycan array binding signal (z-score) [29]: -0.089
